Experimental data as given in the supplement of paper PMC11417369.
The list shows a part of the results.

Tested on: PF3D7_0420300 AP2 domain 1 (GST-tagged)
Assay: gcPBM binding intensity (ln(normalized median fluorescence intensity)); higher = stronger DNA binding
Outline: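 Binding intensity is the highest Masliner-normalised natural-log median intensity over replicate spots in either probe orientation. To obtain it, GST-tagged P. falciparum DNA-binding domains made in E. coli were incubated for 1 h on an Agilent 4 × 180k array of primer-extended double-stranded 36-bp intergenic genomic probes plus negative controls. Detection used Alexa488 anti-GST antibody with scanning at 488 nm.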

Sequence | gcPBM binding intensity (ln)
AAAATAAAAAATTAATGTACTTAGAATTGTCACTAA [XGTACX_site1346] | 9.15
TTTTGTAAATATATATGTACATATATATATATATAT [XGTACX_site5803] | 9.05
ACCTATTTATAATAGTGTACGTACAAATTTGTTTAC [XGTACX_site8176] | 9.19
TTTTTCATGTTTATTAGTACATATATTAAGAATGGA [XGTACX_site3493] | 8.95
AATTTGTTGAAACACACACACACATACATATATATA [CACACA_site2287] | 10.1
TAAAATAATAAACAGAAGAAATCATTCATATAAAAA [XGTACX_negctrl_site502] | 9.3
ATAAATATATGATAAAGTACATATTTATATAATAAA [XGTACX_site7263] | 9.09
TGATATTATATATATACACACATGTATGTATATATA [CACACA_site1364] | 9.33
ATATTTATTTATAATTGTACTAATAATATATTTTAA [XGTACX_site587] | 9.05
ATGTATCTATATATATGTACACATATTTTAATTAAA [XGTACX_site3673] | 9.13
TGTGCATAATTTTGTGCACACCACGCTAATAATTTT [CACACA_site2915] | 9.15
GGAATAAATAATATTATACACACGTATATTATTATA [CACACA_site2435] | 9.23
AAGCTTTCATAAAGATGTACTTTTTAAAAATAATCT [XGTACX_site5725] | 8.78
TACAACAAGTAATGGTGTACATTATATTATGTAATA [XGTACX_site1194] | 9.15
TATAACAATTTTTATGCATGCGACTATAATATTTTT [TGCATGCA_site508] | 9.28
TAAGGATTGGTATAAAGTACAGGAGTAAATTGAAAA [XGTACX_site8525] | 9.24
TACATATTGAATAAGACACACATATATATATATATA [CACACA_site1878] | 9.28
ATATTTTTTTTTTATTGTACCCTCATAAAAGAAAAG [XGTACX_site773] | 8.9
CATACACATATATATTGTACACATATATGTATGTAT [XGTACX_site4030] | 9.29
TATATACACGCACATACACACAAATAAAAAAACACC [CACACA_site7578] | 9.93
GTATTATTCTATAGAAGTACAGTATATTATTATTTA [XGTACX_site5073] | 9.23
TGTGTTGTAATTAAAACACACATGAAAAAATTAAAA [CACACA_site51] | 9.3

Sequence | gcPBM binding intensity (ln)
TAATGTATCTAAAATTGTACAAATATAAATCTAAAT [XGTACX_site1197] | 9.21
CGCGCCCAGAAACACACACACACACCGATATATATA [CACACA_site5250] | 10.3
ACAAAGATAAAACATAAAATATATCAAACATAAAAT [XGTACX_negctrl_site198] | 9.65
AATAAATATAAATACACACCCATATAAATATAAATA [CACACA_site7264] | 9.85
AAAAAAAATACATGTTGTACGGTACAAATATAAAGT [XGTACX_site2863] | 9.75
AAAATAATAAAAAAAAAAAAAAAAAAAAAAAAGTAT [TGCATGCA_negctrl_site193] | 9.74
ATATATCTTCTTTGCACACTTAAAGGGAAGTGATAA [CACACA_site342] | 9.1
AAAAAAATAATAAAATGTACAAATAAACACATAAAG [XGTACX_site5102] | 9.69
AAATAAAATAAAACAACACACACGAATGTATAAATA [CACACA_site885] | 9.99
TTTATTTTATTCACTATCATAAGCAAAACTTAAACA [GTGCAC_negctrl_site287] | 8.8
ATTAATAATATTACATGTACATAATATAATTGAAAA [XGTACX_site5084] | 9.25
TTAGATATTATTATATGTACATATTATATGTATTAT [XGTACX_site3836] | 9.29
TAGTTAATATGATTATGTACATATATATATTAATTT [XGTACX_site1750] | 9.18
ATTTTTTTTTTTTTTTTTTTTTTTTTTTTTGTTGTT [CACACA_negctrl_site1313] | 9.12
TGTATATGAAAAAATAGTACTCATATAAATATCTTT [XGTACX_site6542] | 9.17
ATAATATATTTATAAACACACAAAAAAAGTTATATA [CACACA_site6831] | 9.51
TTATTTATGAAGTATACACACAATATATATATATAT [CACACA_site1248] | 9.34
TTAATCCACAGACACACACACACAAAATAAAATACA [CACACA_site244] | 10.2
AATATATTAAATATTACACACATACATTTAGTGTAA [CACACA_site5145] | 9.35
TATATATTAAACTTTGCACACATAATTTAACTACAA [CACACA_site3440] | 9.4
TTTTTTATTCCATAATATAATATGTTTTGAAATTTG [GTGCAC_negctrl_site440] | 9.08
ATATACATATCAATGTAATATTATATACTTTTTTAG [CACACA_negctrl_site816] | 9.13

Sequence | gcPBM binding intensity (ln)
ATATAATTATATTCCATACACACATATATTTAAAGG [CACACA_site2958] | 9.42
AAAAAAATAAATAAATGTACATATATAAAACATTGT [XGTACX_site2136] | 9.42
AAACGAGAACATAATAAATACATAAATAAATAAATA [GTGCAC_negctrl_site433] | 9.51
AACAAATACGAACACACACACACACTAAAAAAAAAA [CACACA_site6386] | 10.2
ATAATATGAAAACACACACACACACCCAAAAAAAAA [CACACA_site2011] | 10.2
ATATATATTATATATATATATATATATATATATATA [CACACA_negctrl_site493] | 8.81
CACATTAATTTTTGGGTGCACTTGGGAAATTTTGGT | 9.17
AGGATATAATACCATACACACATTTATAAAATAACA [CACACA_site1930] | 9.75
TGTAATCAAAAAAATAGTACATAAATTGTGTATACT [XGTACX_site5908] | 9.23
TAATAAATAAATGACACACACACACGCAAAAAAAAA [CACACA_site7275] | 10.1
AATTTGAAATATGTGGTGCAGTTATATAATATGTTT [GTGCAC_site9885] | 9.5
ATATTTTCCCTTGTTTTACACACGTGCTGATATGAG [CACACA_site8672] | 9.84
TGTAGTCTGGAGAAAAGTACACAGTATCTGGTAACC [XGTACX_site2033] | 9.17
ATATAGAATAAAACTATACACACCTATATTTAAACA [CACACA_site1902] | 9.64
ATATAAAAAAATAATAAATAAATAAAAAGATTTCTT [XGTACX_negctrl_site110] | 9.22
TATATTAATAAAGGTACTACACGGAAATGGAAATAT [XGTACX_site7760] | 9.82
CTTGTATAGAAACACACACACACTTTCTTTTTTTAA [CACACA_site1964] | 9.87
ATTCTTTATTATTCGCCACACACATATATATATATA [CACACA_site9009] | 9.91
TATTGGAAAATTAGAAGTACTTTCATATATTAGACT [XGTACX_site4503] | 9.06
TTTTTATTATTCCATAGTACAGAAAAAATGATATAT [XGTACX_site3431] | 8.99
TAGATTTTTATGCGTGCACACATTTAAAAAAAAAAC [CACACA_site3421] | 9.27
ATACCTACATACATACGTACATATATATATATAATG [XGTACX_site234] | 9.5

Sequence | gcPBM binding intensity (ln)
AAATATAATAACATAACACACACATGTATTTATAGG [CACACA_site8009] | 9.8
TTTTAATAAATTCAAAACATAAAAAGGAAAAAAAAA [XGTACX_negctrl_site471] | 9.13
TATAATGAGAAGATATAATATATAGGGGGTAATTCT [GTGCAC_negctrl_site228] | 9.89
ATATATATATATATATGTACTTATTTGTATAAATAC [XGTACX_site8031] | 9.02
TTTTTTTCATAAGAAGCACACAAAAAATGATAGAGA [CACACA_site8401] | 9.22
CTATTTCAATTTAGTGCACACATTTTAATTTATAAG [CACACA_site2040] | 9.36
ACATACACATATACATGTACATATATATATATATAT [XGTACX_site5082] | 9.43
ATTAAAACAAAATGTACACACATATCATTTAATGAC [CACACA_site6543] | 9.55
TATGAAAAGATATATACACACATAATAAAGGTATAT [CACACA_site7713] | 9.74
CATTATTATTAACATACACACGTGTTAAATACACCC [CACACA_site6118] | 9.5
TTTTAATCTTAATTATGTACATATAAAATGTGTATA [XGTACX_site7382] | 9.05
ATATATGTATTTAATACACACAAAACTTTCATTCCA [CACACA_site3531] | 9.47
ATATTCATTAACCACACACACAAAAAAAATAAAATT [CACACA_site3801] | 10
TTTTTAGAAAGACATGCATGTAATAAAAATAAATAA [TGCATGCA_site685] | 9.04
ATACATATATGCTTCTGTACACATAATTTATAAAAA [XGTACX_site7000] | 9.22
CATATGTCTTGAGATCGTACGTTATTTTTTTTATTT [XGTACX_site1381] | 9.52
AAGAATATTAATATAAATAAGTAAATAAATAAATAA [CACACA_negctrl_site417] | 9.33
AAAAATTATATATATATATATATATATATATGTATA [GTGCAC_negctrl_site488] | 8.89
TGGTAAATTTACCGTTGTACATTCATTTATAACATT [XGTACX_site8910] | 9.32
TATAAATTTAAAATGACACACACTAAAATTATTTAA [CACACA_site1239] | 9.47
GTATTATTATTATGCACACAAAAATATTTATACATA [CACACA_site3656] | 9.46
TATATATATATATATATATATATATATATATGTATA [TGCATGCA_negctrl_site17] | 8.66
